In all, about 150,000 compounds went through this assay and about 540 (0.36%) showed an effect of 50% or more. The list shows a part of the results.
tested on: Plasmodium falciparum; assay: Primary screen in NF54 nanoGlo assay, in single point, at 2uM, 72h; a lower Z score goes with more inhibition; assay type: functional, Erythrocyte; conditions: timepoint 72 hour

SMILES	% Inhibition [%]	Z score
COc1ccccc1C1(CNC(=O)CN2CCOCC2)CCC1	8	-1.21
CN1C[C@@H](c2nc(-c3cccc(OCC(F)F)n3)no2)NCC1=O	15	-1.85
FC(F)(F)c1ccccc1-n1nc(C2CC2)nc1-c1ncn[nH]1	-3	0.66
CC(C)c1nc2c(c(=O)n1CC(=O)N1CCN(c3ccccc3)CC1)CCN(Cc1ccccc1)C2	27	-3.06
Cc1ccoc1C(=O)C(C#N)C(=O)CC1CC2CCC1C2 (stereo unspecified)	0	0
COc1ccc(OC)c(CCC(=O)N[C@@H](c2ccccc2)c2ccc3nc(C(F)(F)F)[nH]c3c2)c1	-1	0.1
O=C(NC1CCCCC1)N1C[C@H]2CCCc3nnc(-c4ccc(F)cc4)n3[C@H]2C1	-18	1.69
Cc1csc(CNc2nc3ccccc3s2)n1	-1	0.14
CCS(=O)(=O)N1CCC[C@H](C(=O)NC(C)(C)C(=O)OC)C1	-5	0.66
CCN(Cc1nc2ccccc2c(=O)[nH]1)C(=O)c1cnn(-c2ccccc2)c1	31	-3.96
Cc1c(NC(=O)[C@H]2CCc3nnc(C4CCOCC4)n3CC2)cccc1C(F)(F)F	36	-4.79
Cc1cc(-c2ccccc2)nc(NCc2ccccc2Cl)c1S(=O)(=O)c1ccc(Cl)cc1	7	-1.02
C[C@H](NC(=O)c1cccc(-n2nccc2-c2ccccc2)c1)C1CC1	-4	0.62
COc1ccc2nc3n(c2c1)[C@@H](CNCc1ccccn1)COC3	-5	0.81
Cc1nnc(-c2ccccc2C(=O)OCc2cccc3cn[nH]c23)o1	-3	0.29
CN1CC[C@H](C(=O)NCC2(c3cccs3)CCCCC2)CC1=O	5	-0.65
NC(=O)c1csc(CNCC2CN(C(=O)c3ccccc3)C3CCN2C3)c1 (stereo unspecified)	-10	1.08
Oc1cc(-c2ccc(Cl)cn2)cc2c1OCCN(c1cnccn1)C2	-12	2.29
CN1CCN(CC(=O)N2CCCCC2)C[C@@]12CCC(=O)N(CC1CC1)CC2	-8	1.24
CC(C)c1noc([C@H](C)NS(=O)(=O)N2CCN(C)CC2)n1	-1	0.16
COC(=O)COC(=O)c1csc(C)n1	1	-0.12
Cc1ccc(NC(=O)N2CCC[C@H]2c2ncc[nH]2)cc1Cl	-4	0.67
CC[C@@H](CNC(=O)CCC(=O)c1ccc2c(c1)OCCCO2)c1ccccc1	-5	0.52

Source: ChEMBL document CHEMBL4888484, “Replenishing the malaria drug discovery pipeline: Screening and hit evaluation of the MMV Hit Generation Library 1 (HGL1) against asexual blood stage Plasmodium falciparum ,using a nano luciferase reporter read-out” (2022)
